From PubChem BioAssay AID1345083 (National Center for Advancing Translational Sciences (NCATS), 2018)
The campaign covered roughly 94,000 compounds. About 6,200 (6.6%) were called active. Inconclusive results, whose numbers are uncertain, are shown with a selection of clear calls. Calls follow the shape of the dose curve; as a rule, active = well fitted inhibition curve with a large enough effect; inconclusive = small, poorly fitted or top-dose-only effect; inactive = flat fitted curve, though single readings scatter. Potencies of inconclusive entries are doubtful fits and often do not repeat.

Experiment: Cytotoxic Profiling in HEK 293 Cell Line of Diverse Libraries Using Quantitative High-Throughput Screening; also: nearly all actives have a fitted effect of over 60% in size
Conditions: HEK 293 viability, ATP luminescence (CellTiter-Glo), 48-72 h; series mostly up to 115 µM
Summary of the method: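 Cells seeded first (HEK 293, 250 cells/well), then compound added by pintool. Incubation ran 48 or 72 hr at 37 degree Celsius. CellTiter-Glo was added and luminescence imaged after 10 min at room temperature.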
Potency is read from the fitted curve at half-maximal effect; tags tell the direction and shape of the fitted curve.

Structure (SMILES) | Potency
COCc1nc2nccc(-c3ccc4c(c3)CC(C)O4)n2n1 (stereo unspecified) | inconclusive: 44.7 µM [inhibitor, partial curve, poor fit]
COc1ccc(Cl)cc1-c1nc(C2CC(=O)N(c3ccc(F)cc3)C2)no1 (stereo unspecified) | inconclusive: 89.1 µM [inhibitor, partial curve, poor fit]
N#Cc1cccc(C(=O)N2CC(c3nc(CCOCC4CCCC4)no3)C2)c1 | inconclusive: 50.1 µM [inhibitor, partial curve, poor fit]
COc1ccc(-c2cn3cc(C(=O)NC4CCCCC4)nc3s2)cc1 | inactive
CCCCc1nc(C)cc(NCCNC(=O)C2CCCN(C(N)=O)C2)n1 (stereo unspecified) | inactive
O=C(O)Cn1ccc2cc(OCc3cccc(-c4ccc(F)c(Cl)c4)c3)cnc21 | inconclusive: 126 µM [inhibitor, single point]
COc1cccc(CNC(=O)c2c(C)noc2-c2cccc(F)c2)c1 | inconclusive: 89.1 µM [inhibitor, partial curve, poor fit]
Cn1ncc2c(C(=O)N3CCC(C#N)CC3)cc(-c3ccc(Cl)nc3)nc21 | inactive
COc1ccc(F)cc1-c1cccc(C(=O)NCCNC(=O)Nc2ccccc2F)c1 | active: 20 µM
Fc1ccccc1-c1cc2c(cn1)CN(Cc1cccnc1)CCN2 | inconclusive: 79.4 µM [inhibitor, partial curve]
CNC(=O)c1cc(C2CC2)nc2onc(C3CCN(C(=O)Cc4ccccn4)C3)c12 (stereo unspecified) | inactive
CCC1=C(C(=O)OC)C(c2ccc(OC)cc2)N2C(CC(=O)NCC3CC3)=CSC2=N1 (stereo unspecified) | inconclusive: 89.1 µM [inhibitor, partial curve, poor fit]
COc1ccc(-c2ccnc3nc(C(C)C)nn23)c(F)c1 | inconclusive: 44.7 µM [inhibitor, partial curve, poor fit]
CCOc1ccc(Cc2nc(C3CC(=O)N(C4CCCCC4)C3)no2)cc1 (stereo unspecified) | inconclusive: 50.1 µM [inhibitor, partial curve, poor fit]
O=C(Cc1ccccc1)N1CCC2(CC1)CN(c1ccccc1)C2=O | active: 35.5 µM
N#Cc1cccc(C(=O)N2CCCCC2CCn2cc(-c3ccccc3)nn2)c1 (stereo unspecified) | inconclusive: 89.1 µM [inhibitor, single point]
CC(C)CCN1CCCC2(C1)C(=NC1CCCCC1)NC(=O)N2c1cc(F)cc(F)c1 (stereo unspecified) | inconclusive: 35.5 µM [inhibitor, partial curve, poor fit]
CCc1ccc(CNC(=O)C2CCN(c3cc(C(F)(F)F)ncn3)CC2)cc1 | inconclusive: 39.8 µM [inhibitor, partial curve, poor fit]
CCOc1cccc(NC(=O)c2cc(-c3ccc(C(F)(F)F)cc3)nc3c2cnn3C)c1 | inactive
COc1ccc([C@H]2C[C@@H](O)[C@@H](O)[C@@H]2NC(=O)c2nc3ccccc3s2)cc1 | inconclusive: 112 µM [inhibitor, single point]
c1coc(-c2nnc([C@H]3CCN(Cc4cccs4)C3)o2)c1 | inactive

Structure (SMILES) | Potency
OCC1CN(c2ncccn2)CC12CCN(Cc1ccc3[nH]ccc3c1)CC2 (stereo unspecified) | inconclusive: 89.1 µM [inhibitor, single point]
O=C1OCC2(CCN(Cc3ccc4cn[nH]c4c3)C2)N1Cc1ccccn1 (stereo unspecified) | inconclusive: 126 µM [inhibitor, single point]
COc1cccc(Nc2cccc(CN3CCC(C)(NC(C)=O)C3)c2)c1 (stereo unspecified) | inconclusive: 112 µM [inhibitor, partial curve, poor fit]
CCOC(=O)c1cccc(NC(=O)c2c(OC)cc(=O)n3c2CCCC3)c1 | inconclusive: 79.4 µM [inhibitor, partial curve, poor fit]
COCCOc1cc(C)c2c(c1C)C[C@H](C(C)C(=O)N1CCOCC1)CC2 (stereo partly specified) | inconclusive: 126 µM [inhibitor, single point]
COc1ccc(CN2CC3(CCN(C(=O)Nc4cccc(Cl)c4)CC3)C2=O)cc1 | inconclusive: 79.4 µM [inhibitor, partial curve]
COc1cccc(CN2CCc3nc(C(C)C)nc(-c4ccc(O)cc4)c3CC2)c1 | inconclusive: 56.2 µM [inhibitor, partial curve, poor fit]
CN1CC(=O)N(C2CCNC2)Cc2c(NC3CCCC3)ncnc21 (stereo unspecified) | inconclusive: 100 µM [inhibitor, single point]
O=C(NCCNC(=O)c1ccc(Cl)nc1)c1ccc(-c2cncnc2)cc1 | inconclusive: 89.1 µM [inhibitor, partial curve, poor fit]
COc1c(F)cc(CN(CCO)Cc2ccc(SC)cc2)cc1Cl | inconclusive: 89.1 µM [inhibitor, single point]
O=C(NC1CCN(c2ccnc3ccnn23)CC1)c1cccc(Cl)c1 | inconclusive: 89.1 µM [inhibitor, partial curve, poor fit]
N#Cc1cccc(NC(=S)O[C@@H]2CO[C@H]3[C@@H]2OC[C@@H]3n2nnnc2SCc2ccco2)c1 | inconclusive: 44.7 µM [inhibitor, partial curve, poor fit]
COc1cccc([S+](=O)([O-])N2CCn3ncc(C(=O)Nc4ccc(Cl)cc4Cl)c3C2)c1 | inconclusive: 56.2 µM [inhibitor, partial curve, poor fit]
O=S(=O)(c1cccc(F)c1)N1CC[C@@H]2COCCN(Cc3cccnc3)[C@@H]2C1 | inconclusive: 89.1 µM [inhibitor, single point]
COc1ccc(CN2CCN(CCC=C(C)C)CC2CCO)cc1C (stereo unspecified) | inconclusive: 50.1 µM [inhibitor, partial curve, poor fit]
CCN1C(=O)CCC2(C(=O)NCCN(C)C3CCCCC3)CCCC=C12 (stereo unspecified) | active: 44.7 µM
COc1ccc(-c2noc(CC3CCN(C(=O)c4cc(F)ccc4Cl)CC3)n2)cc1 | inconclusive: 39.8 µM [inhibitor, partial curve, poor fit]
COc1ccc2[nH]c3c(c2c1)CCN(C)C31CCNCC1 | inconclusive: 56.2 µM [inhibitor, partial curve, poor fit]
COc1ccccc1Nc1ccnc(N2CCN(C(=O)c3ccc(C(F)(F)F)cc3)CC2)n1 | active: 39.8 µM
CC(C)Oc1ccc(CNC(=O)CCC2CCN(C(=O)c3ccccc3)CC2)cc1 | inconclusive: 50.1 µM [inhibitor, partial curve, poor fit]
CN1Cc2ccc(Nc3ccccc3)nc2C(C)(C(=O)NCc2ccc3c(c2)OCO3)C1 (stereo unspecified) | active: 79.4 µM

Structure (SMILES) | Potency
CCn1c2c(c(=O)n1-c1ccccc1)CCN(C(=O)c1ccc(Oc3ccccc3)cc1)C2 | inconclusive: 39.8 µM [inhibitor, partial curve, poor fit]
O=C(NCc1cccs1)C1CCCN1c1nccc(Nc2ccccc2F)n1 (stereo unspecified) | inconclusive: 44.7 µM [inhibitor, partial curve, poor fit]
CCOC(=O)C1CCN(C(=O)c2cn3cc(-c4ccc(C(F)(F)F)cc4)sc3n2)CC1 | inconclusive: 89.1 µM [inhibitor, partial curve, poor fit]
COC1CN(c2ccc(C)cc2)C12CCN(C(=O)CCc1nc3ccccc3s1)CC2 (stereo unspecified) | inconclusive: 79.4 µM [inhibitor, partial curve, poor fit]
Cc1noc(-c2cccc(OC3CN(C(=O)NC(C)C)C3)c2)n1 | inactive
Cc1oc(C(O)c2ccccc2F)nc1C(=O)Nc1ccccc1C(N)=O (stereo unspecified) | inconclusive: 50.1 µM [inhibitor, partial curve, poor fit]
Cc1csc(NC(=O)c2cnc3c(c2)N(C(=O)CCc2ccccc2)CCC3)n1 | inconclusive: 100 µM [inhibitor, partial curve, poor fit]
Cc1ccc(C(=O)N2CCC3(CC2)NC(=O)N(c2ccccc2Cl)N3)cc1 | inconclusive: 3.55 µM [inhibitor, full curve, poor fit]
COCCNC(=O)C1(F)CCN(C(=O)c2cnc(C)cn2)CC1 | inactive
Cn1ncc2c(C(=O)NCc3cccnc3)cc(-c3ccc(Cl)nc3)nc21 | inconclusive: 56.2 µM [inhibitor, partial curve, poor fit]
CCC(=O)N1Cc2ccccc2CC2(CCCN2Cc2ccc(OC)cc2)C1 (stereo unspecified) | inactive
CCOc1ccc(NC(=O)Cn2c(N3CCN(c4ccccc4)CC3)nc(C)cc2=O)cc1 | inconclusive: 39.8 µM [inhibitor, partial curve, poor fit]
Cc1nnc2ccc(N3CCC(NC(=O)c4ccc(Cl)cc4)CC3)nn12 | inconclusive: 50.1 µM [inhibitor, partial curve, poor fit]
COc1cccc(CC(=O)Nc2ccc3c(c2)CN(Cc2ccccc2Cl)C(=O)C(C)O3)c1 (stereo unspecified) | inconclusive: 28.2 µM [inhibitor, partial curve]
O=C(NCc1cccc(F)c1)C1CCCN1c1nccc(Nc2ccccc2F)n1 (stereo unspecified) | inconclusive: 50.1 µM [inhibitor, partial curve, poor fit]
CCN1c2cc(C(=O)N3CCN(c4ccccc4)CC3)ccc2C(=O)N2CCCCCC21 (stereo unspecified) | active: 28.2 µM
Cn1ncc2c(C(=O)Nc3ccc(Cl)cc3)cc(-c3ccc(C(F)(F)F)cc3)nc21 | inactive
COCC1CN(C)CC12CCN(Cc1ccsc1)CC2 (stereo unspecified) | inconclusive: 100 µM [inhibitor, partial curve, poor fit]
O=C(NC1CC1)[C@@H]1C[C@H](Oc2cccnc2)CN1C(=O)c1cc2ccccc2[nH]1 | inactive
